Sequences with one replicate were seen in a single cluster, so their values are uncertain.
System: ATP
Test: switch fluorescence ratio, 500 uM ATP over buffer (Cy3 cluster intensity, sum of 5 cycles each) (fold (ratio)); higher = stronger signal-on switching upon ATP binding; sequences stand for … in TCGTCGGCAGCGTCAGATGTGTATAAGAGACAGTTTTTTTTTTTTTTTTTTTTTTTTT…TC
Details: aptamer strand: ATP DNA aptamer (quencher-CACCTGGGGGAGTATTGCGGAGGAAGG + anchor), 100 nM annealed; ATP concentration: 500 uM; one replicate
In short: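 The quencher-labelled ATP aptamer, at 100 nM, was annealed to Cy3-labelled switching-strand clusters on a modified Illumina MiSeq flow-cell. The clusters were imaged in selection buffer, then after 15 min with 500 uM ATP at 22 °C, and this buffer/ATP cycle ran five times with NaOH stripping and re-annealing between runs. Per-cluster fluorescence ratios, summed target-cycle over summed buffer-cycle Cy3 intensity, were averaged per switch-domain sequence. Clusters outside 100-1000 RFU were excluded.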
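Further: ATP exposure 15 min at 22 °C before imaging.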

Sequence | switch fluorescence ratio
AGATCGGTCA | 1
CCAAATAGTT | 0.968
TTCCATTGTT | 1.01
TGAACCAGAC | 1.62
GCGCTGGTTC | 1.06
TCCTGAAT | 1.02
TATCACAGTC | 1.01
TGCTATCGTT | 0.988
TAGGGCGACC | 1.02
TAGGAGATGC | 0.98
GATCGGCTGT | 0.969
AGGCCGGATA | 0.964
CTATAATATC | 1.04
CAGGCCGGGC | 1.02
TCGCGATAGA | 1.03
CGGAAGGGA | 1.03
TGTGAAGGAC | 1
TGTGTATCAG | 0.944
ATGTATTGAC | 1.04
ACATGCCTCG | 1.09
TTTTCTTAAT | 1.01
AGACAAGAAT | 1.56
TAACAGTTGA | 0.983

Sequence | switch fluorescence ratio
AACGTGTGTA | 0.997
CACCCTTGCT | 1.14
CACTTCAGTA | 1.04
GAGGAACTGT | 1.04
TAGGAGCGCC | 1.03
GAAAAGTCCG | 1.02
CGGGGACGCT | 0.971
GGTGGAAAGT | 0.954
GGGGGGGAA | 1.03
GCATCTCACG | 1.08
CACAAAACTA | 1.13
GGCTAGATTC | 1.01
ATAGACGACT | 1.05
AAGGAATAAT | 0.977
AAGTGTCCGT | 0.972
CGGCTGGCTC | 1.04
TGTTTGCTCA | 1.04
CCTGTATCTA | 1.01
TACTACCTAA | 1.12
TCGATGGATT | 0.969
CTTTTCTTCT | 1.04
TTTATAGTG | 1.03
AAAGTGGCTC | 0.984

Sequence | switch fluorescence ratio
GCCGAGCTTG | 1.01
GAGGTACCTA | 1.01
TGTAGTAGAA | 0.992
TTTATTTCGG | 0.995
CAAATCGATT | 0.938
ACTTGGACAG | 1.05
ACAGTTATAA | 1.01
TGCAGCCGGT | 1.09
ACAAACCTGC | 1.52
GTACTTGAAT | 1.02
AGTCGAGTG | 1.01
CAGTAACTGA | 1.06
CAGCGTCAAC | 1.11
TAAAATGTAA | 1.01
AATAAACTAA | 0.973
GTGAAAAGGT | 1.04
TTTTTACTCA | 1.03
AAGAGTCCTT | 1
ACACTGTTTT | 1
TGGGGATGAG | 1.07
ACAGGGCTA | 0.992
TACTGCATAT | 1.18
GCGGCACTA | 1.06

Sequence | switch fluorescence ratio
ACTGTACCTG | 1.44
ACAAGTCGGA | 1.03
CATTTAACT | 0.994
TTTAGCCCCT | 1.1
AAGGCGTCCC | 1.01
AGTTACTATG | 1.06
CGAATTATGC | 1.1
CGTAGTGCTA | 1.01
TGGCATTGGC | 0.996
AAGGAGGATC | 0.992
TTATGATCTA | 1.02
TGCACTATGC | 1.03
CAATTAATTG | 0.953
AACCGGGGGC | 1.08
CTAATGACTA | 1.05
TTAGTTCACG | 0.931
ATAGGGGGCC | 1.04
TAAGTGGGCG | 1.12
TGAGCGCTTG | 1.03
ACACTAATGT | 1.08
GCTAAATATA | 0.996
TTCATCCTGA | 1.07
GGTCTAACTG | 1.01

Sequence | switch fluorescence ratio
ACATCCGTTA | 1.19
AGCTCAATGG | 1.02
AGGGCGGCGT | 1.06
TTCAGTCACC | 1.02
CCACCGGGGG | 1.5
GAGCTTTTCG | 1.03
ACGTCGTGTT | 1.02
CTATTGATGA | 0.958
CATTTGTTGG | 1.01
GCCTTTCGCG | 1.38
CTCTGTAATT | 2.1
TATAGCAGTA | 1.06
CGATCAAACG | 1
AGAAGGGCTA | 0.965
GCTCGAGACT | 1.08
CGGCTTTAAA | 0.981
TATTATAAAC | 1.14
CCCGCTATGG | 2.69
ACCGCCGCCT | 1.14
GAGTCGAGGT | 1.01
TTAACTTTGG | 1.03
TTGTCTGACT | 1.04
AAGACGCCCA | 1.14

Sequence | switch fluorescence ratio
GAGGTCGTA | 0.992
CGTAATGGAA | 0.998
TGGGGTGATG | 0.968
GATTCTC | 1.01
TGCCCCGAGC | 1.01
GGGGCCGCCA | 1.05
CCAGTAACGT | 0.993
ATCATTTTGG | 0.946
TGGTCGGCG | 0.954
TGACTGGGCT | 1.04
CACGGGACTT | 1.29
TATGCCTTAT | 1.02
ACGGCGTTGT | 0.983
TATACAGGT | 0.971
GTGATGTCGG | 1.05
GAATGACGAG | 0.975
TTTAGTGCAA | 1
GAGATCACAT | 0.971
CTAAGGGCCA | 0.979
CGTGAATCGA | 1.03
TTTACACGGC | 1.04
TAAGAAATTT | 1.03
CGGCCTGGGT | 1

Sequence | switch fluorescence ratio
TTATTAATA | 0.992
AAGATAGTGA | 1.03
AAAGTGTCGC | 0.962
ATACTGATGA | 1.04
GAGAGGTAGC | 1.14
AGTCTGTTTG | 0.964
TTTTAACTCC | 1.07
TCTAAGTAAG | 1.06
GTGTTTGTGC | 1.04
GGATCCGATC | 1.01
CATCGTTGTA | 1.05
GCAACCGGTG | 1.12
TCCCTGGGGC | 1.28
GCCATTCGTG | 1
CGTTAGTTTC | 0.953
TGCGGTTGGC | 1.03
GTTTTGTTAA | 0.98
GGGCGTGAAT | 0.975
ATAAAAGATC | 0.993

— the supplement of paper PMC10126150
